The record followed here is PubChem BioAssay AID360 (National Center for Advancing Translational Sciences (NCATS), 2006).

Structures are written as SMILES. In all, about 48,000 compounds went through this assay and about 550 (1.1%) were called active. About 4% were inconclusive and are not listed. Rule as the data show it: active = potency below about 15 µM; inconclusive = mostly about 16 µM to 33 µM; inactive = weaker than that. The list shows a part of the results.
Potency is read from the fitted curve at half-maximal effect.

In the assay the target is Lysosomal acid glucosylceramidase (Homo sapiens) (UniProt P04062). The assay can be described thus: Glucocerebrosidase.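 Also: the screen sought inhibitors.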 The settings on record: purified enzyme, resorufin glucoside fluorescence (screen aimed at inhibitors), 20 min. The essentials: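 Normal human glucocerebrosidase (0.2 nM final) was assayed with resorufin β-D-glucopyranoside (30 uM final) in 50mM citric acid/KH2PO4, 10mM sodium taurocholate, 0.01% tween-20, pH 5.9. Compounds were titrated; fluorescence (Ex 548, Em 600) read after 20 min at RT.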
UniProt P04062, sequence (P04062 whole entry, looked up): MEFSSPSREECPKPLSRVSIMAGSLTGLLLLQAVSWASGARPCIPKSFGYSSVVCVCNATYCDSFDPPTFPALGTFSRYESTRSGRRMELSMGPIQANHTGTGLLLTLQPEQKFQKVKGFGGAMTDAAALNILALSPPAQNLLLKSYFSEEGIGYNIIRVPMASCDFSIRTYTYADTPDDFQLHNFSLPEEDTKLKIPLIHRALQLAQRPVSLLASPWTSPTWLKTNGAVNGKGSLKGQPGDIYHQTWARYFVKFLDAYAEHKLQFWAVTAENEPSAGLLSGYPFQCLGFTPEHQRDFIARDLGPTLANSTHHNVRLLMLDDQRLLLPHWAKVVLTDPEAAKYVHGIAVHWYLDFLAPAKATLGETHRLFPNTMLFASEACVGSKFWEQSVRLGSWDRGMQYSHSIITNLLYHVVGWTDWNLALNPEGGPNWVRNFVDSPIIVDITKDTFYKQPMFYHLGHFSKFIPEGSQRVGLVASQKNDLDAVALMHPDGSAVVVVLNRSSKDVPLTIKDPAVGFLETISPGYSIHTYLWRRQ
Take `Cn1c(CSCc2ccc(Cl)c(Cl)c2)nnc1SCC(=O)Nc1nccs1`: the Potency was inactive: > 76.9 µM.

As for `CCC(=O)NCCCCNC(=O)CC`, the Potency was inactive: > 76.9 µM.

As to `CC(C)C(=O)Nc1c2c(nc3c1CCC3)CCCC2`, the Potency is inactive: > 76.9 µM.

As to `COc1ccc(NC(=O)N[C@@H](CCSC)C(=O)O)cc1Cl`, the Potency was inactive: > 76.9 µM.

On to `COc1ccccc1C(=O)Nc1ccc(-c2nnc(SCC(=O)O)n2C)cc1`, for which the Potency was inactive: > 76.9 µM.

On to `N[C@@H](Cc1ccccc1)c1nnc(SCc2ccccc2F)o1`, for which the Potency is inactive: > 76.9 µM.

`COC(=O)c1nc(-c2ccccc2)oc1N(C)C`: the Potency was inactive: > 76.9 µM.

Regarding `Cn1c(=O)[nH]c(=O)c2c1nc(NCCCn1ccnc1)n2Cc1cccc(Br)c1`, the Potency was inactive: > 76.9 µM.

For the compound `COC(=O)c1ccc(O)c(Sc2cc(C(=O)OC)ccc2O)c1`, the Potency was inactive: > 76.9 µM.

For the compound `O=S(=O)(Nc1cccc2ncccc12)c1cccs1`, the Potency is inactive: > 76.9 µM.

With `CCNc1ccc(S(=O)(=O)C(F)(F)F)cc1NC(=O)C12CCC(CC1)C2`, the Potency was inactive: > 76.9 µM.

Turning to `Cc1cc(C)c(C(=O)COC(=O)Cn2cnnn2)cc1C`, the Potency entry was “inactive”.

With `O=C(Nn1cnnc1)c1ccccc1-c1ccccc1`, the Potency was inactive: > 76.9 µM.

For `Cc1ccc(C)c(N2CCN(C(=O)CCS(=O)(=O)c3cccc4nonc34)CC2)c1`, the Potency is inactive: > 76.9 µM.

Consider `Cc1cc(C)c(NC(=O)CN2CCN3CCCC3C2)c(C)c1` (centres undefined), for which the Potency is inactive: > 76.9 µM.

Consider `CCOC(=O)c1sc(=S)n2c1[nH]c(=O)c1ccc(C(=O)OC)cc12`, for which the Potency was inactive: > 76.9 µM.

Regarding `Clc1ccc2nc(CN3CCCCC3)cn2c1`, the Potency is inactive: > 76.9 µM.

In the case of `O=c1cc(-c2ccccc2)nc(N2CCCCC2)[nH]1`, the Potency is inactive: > 76.9 µM.

With `O=C(CCNS(=O)(=O)c1cccc2nsnc12)NCc1cccs1`, the Potency is inactive: > 76.9 µM.

Regarding `Cc1nnc(NC(=O)c2ccccc2Br)s1`, the Potency was active: 3.89 µM.

On to `COCCN(CCOC)S(=O)(=O)c1ccc(C(=O)Nc2nnc(C)o2)cc1`, for which the Potency is inactive: > 76.9 µM.

`Cc1ccc(-c2[nH]nc3c2C(c2cccnc2)C(C#N)=C(N)O3)cc1` (centres undefined): the Potency is inactive: > 76.9 µM.

In the case of `NCCc1nnc(SCc2ccccc2)o1`, the Potency is inactive: > 76.9 µM.

On to `Cc1noc(NS(=O)(=O)c2ccc(NC(=O)C34CCC(CC3)C4)cc2)c1C`, for which the Potency is inactive: > 76.9 µM.

Turning to `O=C(Nc1cnccn1)c1ccncc1`, the Potency was inactive: > 76.9 µM.

Take `COc1nc(N)nc(N2CCOCC2)n1`: the Potency was inactive: > 76.9 µM.

With `Fc1ccc(NCc2cn3ccccc3n2)cc1`, the Potency is inactive: > 76.9 µM.

With `FC(F)(F)c1ccc2c(c1)nc1n2CCCC1`, the Potency was inactive: > 76.9 µM.

For the compound `CC(C)(Oc1ccc(Cl)cc1)C(=O)NCCCn1ccnc1`, the Potency is inactive: > 76.9 µM.

For the compound `CCOC(=O)c1cn2c3c(c(F)c(F)c(F)c3c1=O)SC(N1CCCC1)=N2`, the Potency is inactive: > 76.9 µM.

For `CCCCOC(=O)C1=C(C)Nc2ncnn2C1c1cc(OC)ccc1OC` (centres undefined), the Potency is inactive: > 76.9 µM.

`COc1ccc(-c2cc(C(=O)NCCc3ccccc3)no2)cc1OC`: the Potency is inactive: > 76.9 µM.

`O=C(CSc1nc2ccccc2[nH]1)NCCN1CCCCC1`: the Potency is inactive: > 76.9 µM.

`Cc1ccccc1S(=O)(=O)Cc1ccc(C(=O)NCCN2CCN(Cc3ccccc3)CC2)o1`: the Potency is inactive: > 76.9 µM.

For the compound `[O-]/[N+](=C\c1ccncc1)c1ccccc1`, the Potency is inactive: > 76.9 µM.

`CCOCCCNc1nc2c(c(=O)n(C)c(=O)n2C)n1CCCc1ccccc1`: the Potency is inactive: > 76.9 µM.

With `COC(=O)c1ccccc1NC(=O)CN1CCC(n2nnc3cc(F)ccc32)CC1`, the Potency was inactive: > 76.9 µM.

In the case of `C=COC(=O)CSc1snc(SCC(=O)OC)c1C#N`, the Potency is inactive: > 76.9 µM.

For the compound `CCCCCn1c(SCCC(C)C)nc2c1c(=O)[nH]c(=O)n2C`, the Potency is inactive: > 76.9 µM.

Consider `CCc1ccc(-c2nc(CSCC(=O)NCCCN3CCCC3=O)c(C)o2)cc1`, for which the Potency was inactive: > 76.9 µM.

For the compound `CCN(CC)S(=O)(=O)c1ccc2nc(CSc3nnnn3-c3ccc(O)cc3)[nH]c2c1`, the Potency result is “inactive”.

Turning to `CC1CCc2nc(NC(=O)CSc3nc4ccccc4o3)sc2C1` (centres undefined), the Potency was inactive: > 76.9 µM.

For `CC(=O)Nc1ccc(S(=O)(=O)N2CCCCC2c2cccnc2)cc1` (centres undefined), the Potency was inactive: > 76.9 µM.

As for `COc1cc2c(cc1OC)C(/C(C#N)=N\O)=NC(C)(C)C2`, the Potency is inactive: > 76.9 µM.

`CCOCCCNC(=O)c1c[nH]c2cc(C)ccc2c1=O`: the Potency was inactive: > 76.9 µM.

Take `COC(=O)c1ccc(N(CC(=O)NC2CCCC2)C(=O)CNC(=O)c2ccco2)cc1`: the Potency was inactive: > 76.9 µM.

As to `CCOc1ccccc1NC(=O)c1ccc(F)c(S(=O)(=O)N2CCC3(CC2)OCCO3)c1`, the Potency is inactive: > 76.9 µM.

As for `Cc1ccc(S(=O)(=O)Nc2cc(C(=O)N3CCOCC3)ccc2N2CCCCC2)cc1`, the Potency is inactive: > 76.9 µM.

On to `Cc1nccn1CCC(=O)O`, for which the Potency is inactive: > 76.9 µM.

Consider `Cc1cccc2cc(CN(CCCN3CCOCC3)Cc3nnnn3C(C)(C)C)c(=O)[nH]c12`, for which the Potency was inactive: > 76.9 µM.

With `COc1cc(C2CC(=O)NC3=C2C(=O)CC(C)(C)C3)ccc1O` (centres undefined), the Potency is inactive: > 76.9 µM.

`O=C(Nc1ccn(-c2ccccc2)n1)c1ccc(S(=O)(=O)N2CCCCCC2)cc1`: the Potency was inactive: > 76.9 µM.

As for `O=C(CN1C(=O)c2cccc3cccc1c23)N1CCN(Cc2ccc3c(c2)OCO3)CC1`, the Potency is inactive: > 76.9 µM.

As to `CCOc1cc(C(=O)N2CCc3cc(OC)c(OC)cc3C2)ccc1OC(F)F`, the Potency is inactive: > 76.9 µM.

With `CC12CCC(C(=O)N3CCN(Cc4ccccc4)CC3)(OC1=O)C2(C)C` (centres undefined), the Potency was inactive: > 76.9 µM.

`CC(C(=O)OCn1nnc2ccccc2c1=O)N1C(=O)c2ccccc2C1=O` (centres undefined): the Potency is inactive: > 76.9 µM.

`CCC(C)(C)n1nnnc1C(C(C)C)N1CCSCC1` (centres undefined): the Potency is inactive: > 76.9 µM.

Turning to `O=C(OCCN1C(=O)CCC1=O)c1ccc(S(=O)(=O)N2CCCCC2)cc1`, the Potency is inactive: > 76.9 µM.

On to `CCOc1ccc2[nH]c(=O)c(CN(C(=O)N3CCOCC3)C3CC3)cc2c1`, for which the Potency was inactive: > 76.9 µM.
